Reference: the supplement of paper PMC9135407
Values joined by “and” are separate entries in the source; they are usually repeats but may differ in a detail not shown here. Equal entries are not always repeated. Structures can show the parent of a compound that is named as a salt. Among all 5,800 compounds or so, about 620 (11%) showed activity.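 Rule for the calls: active = score above a cut-off or among the top three wells of a plate; in these data no inactive exceeds 0.85.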 The entries are a selection whose mix differs from that of the whole data set.

Tested on: primary human hepatic stellate cells (donor 1)
Assay: scaled lipid accumulation score (0 = DMSO-like, 1 = nortriptyline-like); higher = stronger HSC inactivation (lipid re-accumulation), active = hit call of the paper
Conditions: 48 h
[1] = library stock concentration: 3.33 mM
[2] = library stock concentration: 10 mM
[3] = library stock concentration: 1 mM
[4] = library stock concentration: 2 mM
[5] = library stock concentration: 400 uM

Q: How did the “scaled lipid accumulation score” value [1] turn out when `Cc1cncc2cccc(S(=O)(=O)N3CCCN(C(=O)CN)C[C@@H]3C)c12` [Rho Kinase Inhibitor IV] was run?
A: inactive: ≤ 0

Q: Which “scaled lipid accumulation score” value [2] does the source give for `Clc1ccc2c(c1)CCc1cccnc1C2=C1CCNCC1` here?
A: active: 1.52

Q: For `Cc1nc(C#Cc2ccnc(Cl)c2)c(C)n1-c1ccc(OC(F)(F)F)cc1`, which “scaled lipid accumulation score” value [1] is on record?
A: inactive: ≤ 0

Q: What about the “scaled lipid accumulation score” value [2] of the same compound?
A: inactive: ≤ 0

Q: How did the “scaled lipid accumulation score” value [1] turn out when `COC(=O)C1=C(C)NC(C)=C(C(=O)OCCN(C)Cc2ccccc2)C1c1cccc([N+](=O)[O-])c1` (stereo unspecified) [Nicardipine HCl] was run?
A: inactive: ≤ 0

Q: What about the “scaled lipid accumulation score” value [2] of the same compound?
A: inactive: 0.63

Q: With `COC(=O)C1=C(C)NC(C)=C(C(=O)OCCN(C)Cc2ccccc2)C1c1cccc([N+](=O)[O-])c1` (stereo unspecified) [Cardene] as the compound, how does the “scaled lipid accumulation score” value [2] read?
A: inactive: 0.429

Q: For `COC(=O)C1=C(C)NC(C)=C(C(=O)OCCN(C)Cc2ccccc2)C1c1cccc([N+](=O)[O-])c1` (stereo unspecified), which “scaled lipid accumulation score” value (library stock concentration: 9.7 mM) is on record?
A: inactive: 0.511

Q: Which “scaled lipid accumulation score” value does the source give for `COC(=O)C1=C(C)NC(C)=C(C(=O)OCCN(C)Cc2ccccc2)C1c1cccc([N+](=O)[O-])c1` (stereo unspecified) [Nicardipine hydrochloride] here?
A: inactive: 0.253

Q: What about the “scaled lipid accumulation score” value [2] of the same compound?
A: inactive: 0.101 and inactive: 0.346

Q: What does the source list for `OC[C@H]1O[C@@H](c2ccc(Cl)c(Cc3ccc(O[C@H]4CCOC4)cc3)c2)[C@H](O)[C@@H](O)[C@@H]1O`?
A: scaled lipid accumulation score [1]: inactive: ≤ -0.009; scaled lipid accumulation score [2]: inactive: 0.021

Q: How did the “scaled lipid accumulation score” value [2] turn out when `CN1CCN(c2c(F)cc3c(=O)c(C(=O)O)cn4c3c2SCC4)CC1` was run?
A: inactive: ≤ 0

Q: Which “scaled lipid accumulation score” value [2] does the source give for `CC(=O)N1CCN(C)CC1` [1-Acetyl-4-methylpiperazine hydrochloride] here?
A: inactive: 0.045

Q: How did the “scaled lipid accumulation score” value [3] turn out when `CCCCCCC[C@H](O)/C=C/[C@@H]1[C@@H](C/C=C\CCCC(=O)O)[C@@H](O)C[C@H]1O` [20-ethyl Prostaglandin F2.alpha.] was run?
A: inactive: ≤ 0

Q: Which “scaled lipid accumulation score” value [2] does the source give for `Cc1cc(Nc2cc(N3CCN(C)CC3)nc(/C=C/c3ccccc3)n2)n[nH]1` here?
A: inactive: 0.603

Q: With `Oc1cc(O)c(Cl)cn1` [Gimeracil] as the compound, how does the “scaled lipid accumulation score” value [1] read?
A: inactive: 0.014

Q: And the “scaled lipid accumulation score” value [2]?
A: inactive: 0.04

Q: For `O=C(CCC/C=C\C[C@H]1C(=O)C[C@@H](O)C1/C=C/[C@@H](O)CCc1ccccc1)NC(CO)CO` (stereo partly specified) [17-phenyl trinor Prostaglandin E2 serinol amide], which “scaled lipid accumulation score” value [3] is on record?
A: inactive: ≤ 0

Q: What does the source list for `O=C1Cc2c([nH]c3ccc(Br)cc23)-c2ncccc2N1` [1-Azakenpaullone]?
A: scaled lipid accumulation score [1]: inactive: 0.405; scaled lipid accumulation score [2]: inactive: 0.808

Q: Which results are given for `CC1(C)CCC(C)(C)c2cc(C(=O)Nc3ccc(C(=O)O)cc3)ccc21`?
A: scaled lipid accumulation score [3]: inactive: ≤ -0.021; scaled lipid accumulation score [2]: inactive: 0.042

Q: For `COC(=O)C1=C(C)NC(C)=C(C(=O)OCC(C)C)C1c1ccccc1[N+](=O)[O-]` (stereo unspecified), which “scaled lipid accumulation score” value [2] is on record?
A: inactive: 0.325

Q: What does the source list for `COC(=O)C1=C(C)NC(C)=C(C(=O)OCC(C)C)C1c1ccccc1[N+](=O)[O-]` (stereo unspecified) [Nisoldipine]?
A: scaled lipid accumulation score: inactive: ≤ 0; scaled lipid accumulation score [1]: inactive: ≤ 0; scaled lipid accumulation score (library stock concentration: 5.1 mM): inactive: ≤ -0.006 and inactive: ≤ 0; scaled lipid accumulation score [2]: inactive: 0.114

Q: Which “scaled lipid accumulation score” value [4] does the source give for `Nc1ccccc1NC(=O)c1ccc(CNc2nccc(-c3cccnc3)n2)cc1` [Mocetinostat] here?
A: active: 0.728

Q: What about the “scaled lipid accumulation score” value [2] of the same compound?
A: active: 0.648

Q: What does the source list for `Cn1cc(-c2[nH]c3cc(NC(=O)[C@H](N)C4CCCCC4)cc4c3c2C=NNC4=O)cn1`?
A: scaled lipid accumulation score [1]: inactive: ≤ 0; scaled lipid accumulation score [2]: inactive: 0.077

Q: `CC[C@@H]1/C=C(\C)C[C@H](C)C[C@H](OC)[C@H]2O[C@@](O)(C(=O)C(=O)N3CCCC[C@H]3C(=O)O[C@H](/C(C)=C/[C@@H]3CC[C@@H](O)[C@H](OC)C3)[C@H](C)[C@@H](O)CC1=O)[C@H](C)C[C@@H]2OC` [Ascomycin (FK-520)] was tested. Which “scaled lipid accumulation score” value (library stock concentration: 6.3 mM) did it give?
A: inactive: 0.038

Q: How did the “scaled lipid accumulation score” value (library stock concentration: 80 uM) turn out when `CC1(C)CNc2cc(NC(=O)c3cccnc3NCc3ccncc3)ccc21` was run?
A: inactive: 0.035

Q: And the “scaled lipid accumulation score” value [5]?
A: inactive: 0.008

Q: What about the “scaled lipid accumulation score” value [4] of the same compound?
A: inactive: 0.012

Q: And the “scaled lipid accumulation score” value [2]?
A: inactive: ≤ 0

Q: Which “scaled lipid accumulation score” value [5] does the source give for `CC1(C)CNc2cc(NC(=O)c3cccnc3NCc3ccncc3)ccc21` [Motesanib (AMG-706) (0.4 mM)] here?
A: inactive: ≤ -0.005

Q: With `CC1(C)CNc2cc(NC(=O)c3cccnc3NCc3ccncc3)ccc21` [Motesanib (AMG-706) (2 mM)] as the compound, how does the “scaled lipid accumulation score” value [4] read?
A: inactive: 0.209

Q: Which “scaled lipid accumulation score” value [1] does the source give for `CC1(C)CNc2cc(NC(=O)c3cccnc3NCc3ccncc3)ccc21` [Motesanib Diphosphate (AMG-706)] here?
A: inactive: 0.031

Q: And the “scaled lipid accumulation score” value [2]?
A: inactive: ≤ 0

Q: `CC1(C)CNc2cc(NC(=O)c3cccnc3NCc3ccncc3)ccc21` [Motesanib (AMG-706) (10 mM)] was tested. Which “scaled lipid accumulation score” value [2] did it give?
A: inactive: 0.128

Q: `CCCCCCCCCCCCCCCC(=O)NCCS(=O)(=O)O` [N-Palmitoyl Taurine] was tested. Which “scaled lipid accumulation score” value [3] did it give?
A: inactive: ≤ 0

Q: Which “scaled lipid accumulation score” value [2] does the source give for `CC(=O)Nc1ccc(C(=O)O)cc1` here?
A: inactive: ≤ 0

Q: How did the “scaled lipid accumulation score” value [3] turn out when `CCCCC[C@H](O)/C=C/[C@H]1[C@H](O)CC(=O)[C@@H]1CCCCCCC(=O)O` [Prostaglandin  E1] was run?
A: inactive: ≤ -0.021

Q: `CCCCC[C@H](O)/C=C/[C@H]1[C@H](O)CC(=O)[C@@H]1CCCCCCC(=O)O` [Prostaglandin E1] was tested. Which “scaled lipid accumulation score” value [3] did it give?
A: inactive: ≤ 0

Q: What about the “scaled lipid accumulation score” value [2] of the same compound?
A: inactive: ≤ 0

Q: What does the source list for `CCCCC[C@H](O)/C=C/[C@H]1[C@H](O)CC(=O)[C@@H]1CCCCCCC(=O)O` [Alprostadil]?
A: scaled lipid accumulation score: inactive: ≤ 0; scaled lipid accumulation score [1]: inactive: ≤ 0; scaled lipid accumulation score [2]: inactive: ≤ 0 and inactive: 0.01

Q: Which “scaled lipid accumulation score” value [2] does the source give for `O=C(O)c1cccnc1C(=O)O` [Quinolinic acid] here?
A: inactive: ≤ 0

Q: With `O=C(O)c1ccccc1` [Benzoic acid] as the compound, how does the “scaled lipid accumulation score” value (library stock concentration: 16.4 mM) read?
A: inactive: ≤ 0

Q: What does the source list for `O=C(O)c1ccccc1` [Benzoic Acid]?
A: scaled lipid accumulation score [1]: inactive: ≤ 0; scaled lipid accumulation score [2]: inactive: 0.005

Q: With `CN(CC[C@@H](Oc1ccc(C(F)(F)F)cc1)c1ccccc1)CC(=O)[O-].[Li+]` as the compound, how does the “scaled lipid accumulation score” value [2] read?
A: inactive: 0.149

Q: How did the “scaled lipid accumulation score” value [1] turn out when `CC[C@@H]([C@H](C)O)n1ncn(-c2ccc(N3CCN(c4ccc(OC[C@@H]5CO[C@@](Cn6cncn6)(c6ccc(F)cc6F)C5)cc4)CC3)cc2)c1=O` [Posaconazole] was run?
A: inactive: 0.134

Q: What does the source list for `CCOc1ccc(NC(C)=O)cc1` [Phenacetin]?
A: scaled lipid accumulation score: inactive: 0.45; scaled lipid accumulation score [1]: inactive: ≤ 0; scaled lipid accumulation score [2]: inactive: ≤ 0

Q: What does the source list for `CC(C)[C@H](N)C(=O)OCC(CO)OCn1cnc2c(=O)[nH]c(N)nc21` (stereo partly specified) [Valganciclovir HCl]?
A: scaled lipid accumulation score [1]: inactive: ≤ 0; scaled lipid accumulation score [2]: inactive: 0.028
